In article PMC12820563, “FoxP3 forms a head-to-head dimer in vivo and stabilizes its multimerization on adjacent microsatellites”:
Some of the results follow.

These sequences were tested against T1, MBP-FoxP1dN (Mus musculus, UniProt P58462 326-579) (assay: PD-seq (MBP pull-down with sequencing); 20 mM Tris-HCl pH 7.5, 100 mM NaCl, 1.5 mM MgCl2, 0.4 uM protein, 0.1 uM dsDNA library, 30 min, room temperature, amylose pull-down; high values mean tight binding). Conditions: protein: recombinant; tags: His6-MBP; chain copies: 2; dsDNA, one strand shown.
T1 sequence: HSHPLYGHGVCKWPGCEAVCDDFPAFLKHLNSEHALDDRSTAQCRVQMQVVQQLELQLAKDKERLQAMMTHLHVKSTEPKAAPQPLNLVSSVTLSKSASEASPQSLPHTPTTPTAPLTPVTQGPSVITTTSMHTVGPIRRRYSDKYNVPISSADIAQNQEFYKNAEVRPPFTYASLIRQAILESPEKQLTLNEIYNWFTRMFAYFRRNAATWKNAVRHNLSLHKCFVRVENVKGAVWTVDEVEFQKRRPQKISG
Procedure, shortened: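 A degenerate double-stranded DNA library, filled in with Klenow, was added at 0.1 µM to 0.4 µM His6-MBP-tagged mouse FoxP3 or FoxP1 fragment lacking the N-terminus, expressed in E. coli. Incubation lasted 30 min at room temperature in Tris pH 7.5 buffer with NaCl and MgCl2, after which complexes were collected on amylose resin, washed three times, digested with proteinase K to free the DNA, barcoded by PCR and sequenced by Illumina. Binding is the pooled-replicate reads-per-million enrichment of pull-down over input.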

Sequence	binding signal
GATGATTGTTCTCCCAGCTGATGAATTGAGAGTGTCGAGTAAACAAATTTTCCTAATCTTTCTGTTCAAGCGCCATCTAC	0.885 RPM ratio (pull-down/input)
GATGATTGTTCTCCCAGCTGATGAATTCATCCAGTCGAGTAAACAAATTTTCCTAATCTTTCTGTTCAAGCGCCATCTAC	0.813 RPM ratio (pull-down/input)
GATGATTGTTCTCCCAGCTGATGAATTGTGCTTGTCGAGTAAACAAATTTTCCTAATCTTTCTGTTCAAGCGCCATCTAC	1.35 RPM ratio (pull-down/input)
GATGATTGTTCTCCCAGCTGATGAATTGGGCGCATCGAGTAAACAAATTTTCCTAATCTTTCTGTTCAAGCGCCATCTAC	1.2 RPM ratio (pull-down/input)
GATGATTGTTCTCCCAGCTGATGAATTTAGTGATTCGAGTAAACAAATTTTCCTAATCTTTCTGTTCAAGCGCCATCTAC	0.949 RPM ratio (pull-down/input)
GATGATTGTTCTCCCAGCTGATGAATTACAGGTGTCGAGTAAACAAATTTTCCTAATCTTTCTGTTCAAGCGCCATCTAC	1.07 RPM ratio (pull-down/input)
GATGATTGTTCTCCCAGCTGATGAATTCGCAGATTCGAGTAAACAAATTTTCCTAATCTTTCTGTTCAAGCGCCATCTAC	0.831 RPM ratio (pull-down/input)
GATGATTGTTCTCCCAGCTGATGAATTACGTTGCTCGAGTAAACAAATTTTCCTAATCTTTCTGTTCAAGCGCCATCTAC	1.13 RPM ratio (pull-down/input)
GATGATTGTTCTCCCAGCTGATGAATTAAATCTTTCGAGTAAACAAATTTTCCTAATCTTTCTGTTCAAGCGCCATCTAC	0.941 RPM ratio (pull-down/input)
GATGATTGTTCTCCCAGCTGATGAATTACCGGCCTCGAGTAAACAAATTTTCCTAATCTTTCTGTTCAAGCGCCATCTAC	0.877 RPM ratio (pull-down/input)
GATGATTGTTCTCCCAGCTGATGAATTAAATCCATCGAGTAAACAAATTTTCCTAATCTTTCTGTTCAAGCGCCATCTAC	0.894 RPM ratio (pull-down/input)
GATGATTGTTCTCCCAGCTGATGAATTACATCCATCGAGTAAACAAATTTTCCTAATCTTTCTGTTCAAGCGCCATCTAC	1.12 RPM ratio (pull-down/input)
GATGATTGTTCTCCCAGCTGATGAATTCTGAGGATCGAGTAAACAAATTTTCCTAATCTTTCTGTTCAAGCGCCATCTAC	0.866 RPM ratio (pull-down/input)
GATGATTGTTCTCCCAGCTGATGAATTTCGGCCGTCGAGTAAACAAATTTTCCTAATCTTTCTGTTCAAGCGCCATCTAC	0.786 RPM ratio (pull-down/input)
GATGATTGTTCTCCCAGCTGATGAATTGCAAGGGTCGAGTAAACAAATTTTCCTAATCTTTCTGTTCAAGCGCCATCTAC	1.02 RPM ratio (pull-down/input)
GATGATTGTTCTCCCAGCTGATGAATTATTCCTATCGAGTAAACAAATTTTCCTAATCTTTCTGTTCAAGCGCCATCTAC	1.08 RPM ratio (pull-down/input)
GATGATTGTTCTCCCAGCTGATGAATTACAATAATCGAGTAAACAAATTTTCCTAATCTTTCTGTTCAAGCGCCATCTAC	1.83 RPM ratio (pull-down/input)
GATGATTGTTCTCCCAGCTGATGAATTATTCGGCTCGAGTAAACAAATTTTCCTAATCTTTCTGTTCAAGCGCCATCTAC	0.904 RPM ratio (pull-down/input)
GATGATTGTTCTCCCAGCTGATGAATTGTTAGAGTCGAGTAAACAAATTTTCCTAATCTTTCTGTTCAAGCGCCATCTAC	1.05 RPM ratio (pull-down/input)
GATGATTGTTCTCCCAGCTGATGAATTTTTGCCATCGAGTAAACAAATTTTCCTAATCTTTCTGTTCAAGCGCCATCTAC	1.03 RPM ratio (pull-down/input)

Sequence	binding signal
GATGATTGTTCTCCCAGCTGATGAATTTCGGGTGTCGAGTAAACAAATTTTCCTAATCTTTCTGTTCAAGCGCCATCTAC	0.819 RPM ratio (pull-down/input)
GATGATTGTTCTCCCAGCTGATGAATTTGCCCCTTCGAGTAAACAAATTTTCCTAATCTTTCTGTTCAAGCGCCATCTAC	0.891 RPM ratio (pull-down/input)
GATGATTGTTCTCCCAGCTGATGAATTACAGTCATCGAGTAAACAAATTTTCCTAATCTTTCTGTTCAAGCGCCATCTAC	1.25 RPM ratio (pull-down/input)
GATGATTGTTCTCCCAGCTGATGAATTTTGAACATCGAGTAAACAAATTTTCCTAATCTTTCTGTTCAAGCGCCATCTAC	1.1 RPM ratio (pull-down/input)
GATGATTGTTCTCCCAGCTGATGAATTAGCTGTCTCGAGTAAACAAATTTTCCTAATCTTTCTGTTCAAGCGCCATCTAC	0.931 RPM ratio (pull-down/input)
GATGATTGTTCTCCCAGCTGATGAATTGGTGTACTCGAGTAAACAAATTTTCCTAATCTTTCTGTTCAAGCGCCATCTAC	1.11 RPM ratio (pull-down/input)
GATGATTGTTCTCCCAGCTGATGAATTCGTGAGCTCGAGTAAACAAATTTTCCTAATCTTTCTGTTCAAGCGCCATCTAC	0.781 RPM ratio (pull-down/input)
GATGATTGTTCTCCCAGCTGATGAATTGCTCCTTTCGAGTAAACAAATTTTCCTAATCTTTCTGTTCAAGCGCCATCTAC	1.02 RPM ratio (pull-down/input)
GATGATTGTTCTCCCAGCTGATGAATTCCTGGCATCGAGTAAACAAATTTTCCTAATCTTTCTGTTCAAGCGCCATCTAC	0.931 RPM ratio (pull-down/input)
GATGATTGTTCTCCCAGCTGATGAATTATGTCCGTCGAGTAAACAAATTTTCCTAATCTTTCTGTTCAAGCGCCATCTAC	0.963 RPM ratio (pull-down/input)
GATGATTGTTCTCCCAGCTGATGAATTAGGTCGGTCGAGTAAACAAATTTTCCTAATCTTTCTGTTCAAGCGCCATCTAC	0.815 RPM ratio (pull-down/input)
GATGATTGTTCTCCCAGCTGATGAATTGTTTAAGTCGAGTAAACAAATTTTCCTAATCTTTCTGTTCAAGCGCCATCTAC	1.26 RPM ratio (pull-down/input)
GATGATTGTTCTCCCAGCTGATGAATTGTCGACATCGAGTAAACAAATTTTCCTAATCTTTCTGTTCAAGCGCCATCTAC	1.1 RPM ratio (pull-down/input)
GATGATTGTTCTCCCAGCTGATGAATTCCAGTTTTCGAGTAAACAAATTTTCCTAATCTTTCTGTTCAAGCGCCATCTAC	1.01 RPM ratio (pull-down/input)
GATGATTGTTCTCCCAGCTGATGAATTCCGCGTCTCGAGTAAACAAATTTTCCTAATCTTTCTGTTCAAGCGCCATCTAC	0.89 RPM ratio (pull-down/input)
GATGATTGTTCTCCCAGCTGATGAATTCCAAGCTTCGAGTAAACAAATTTTCCTAATCTTTCTGTTCAAGCGCCATCTAC	0.778 RPM ratio (pull-down/input)
GATGATTGTTCTCCCAGCTGATGAATTTTGCCTCTCGAGTAAACAAATTTTCCTAATCTTTCTGTTCAAGCGCCATCTAC	0.903 RPM ratio (pull-down/input)
GATGATTGTTCTCCCAGCTGATGAATTCGCCCCATCGAGTAAACAAATTTTCCTAATCTTTCTGTTCAAGCGCCATCTAC	0.897 RPM ratio (pull-down/input)
GATGATTGTTCTCCCAGCTGATGAATTTATATCGTCGAGTAAACAAATTTTCCTAATCTTTCTGTTCAAGCGCCATCTAC	1.05 RPM ratio (pull-down/input)
GATGATTGTTCTCCCAGCTGATGAATTCTACCTTTCGAGTAAACAAATTTTCCTAATCTTTCTGTTCAAGCGCCATCTAC	0.93 RPM ratio (pull-down/input)
